# From the BET-seq Pho4 binding data (Le et al. 2018)
# Some of the results follow. Values were computed here from the reads of four pooled replicates and scatter widely.
# Molecular target: T1, Pho4 (S. cerevisiae) (UniProt P07270)
# T1 sequence: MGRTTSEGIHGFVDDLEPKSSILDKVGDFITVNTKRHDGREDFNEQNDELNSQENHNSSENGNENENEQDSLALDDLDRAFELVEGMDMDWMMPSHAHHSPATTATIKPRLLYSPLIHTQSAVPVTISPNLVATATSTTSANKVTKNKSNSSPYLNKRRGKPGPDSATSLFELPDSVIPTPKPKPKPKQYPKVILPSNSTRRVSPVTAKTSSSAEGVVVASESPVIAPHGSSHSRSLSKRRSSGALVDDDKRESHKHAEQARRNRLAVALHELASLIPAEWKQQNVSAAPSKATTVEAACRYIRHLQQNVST
# Assay: relative binding free energy (BET-seq); higher = weaker binding
# Conditions: reference: library average
row,Sequence,relative binding free energy
1,TAATGCACGTGTGTAA,0.05 kcal/mol
2,GTTTGCACGTGGTACG,-0.08 kcal/mol
3,GGTTGCACGTGCGGGA,-0.09 kcal/mol
4,AATATCACGTGGGTCT,-0.09 kcal/mol
5,GGTGGCACGTGTATCG,0.06 kcal/mol
6,TGGGGCACGTGGATCG,-0.02 kcal/mol
7,GGGGGCACGTGGTACA,-0.33 kcal/mol
8,GCTTGCACGTGTGATG,0.13 kcal/mol
9,TGGGGCACGTGTGATC,0.06 kcal/mol
10,GATCGCACGTGGGGGG,-0.05 kcal/mol
11,TGCGGCACGTGAGACG,0.14 kcal/mol
12,GAGAGCACGTGTTTGG,-0.09 kcal/mol
13,GGGCTCACGTGGAGTG,0.23 kcal/mol
14,CGTGTCACGTGCTTGT,0.03 kcal/mol
15,ACTGTCACGTGGTATA,0.05 kcal/mol
16,ATCTTCACGTGGTTCT,0.3 kcal/mol
17,CGTGACACGTGGGTCG,-0.08 kcal/mol
18,GGTTGCACGTGTACGT,0.09 kcal/mol
19,GTGAGCACGTGCGGTG,-0.08 kcal/mol
20,AGACGCACGTGGTAAT,0.11 kcal/mol
21,GGCGTCACGTGGTGTA,0.02 kcal/mol
22,TAAAGCACGTGGAGTG,-0.12 kcal/mol
23,CTCGGCACGTGAGGGT,0.04 kcal/mol
24,AAATGCACGTGCGTTG,-0.08 kcal/mol
25,GGATGCACGTGTTAGA,-0.05 kcal/mol
26,AGGATCACGTGTCGGG,0.08 kcal/mol

row,Sequence,relative binding free energy
1,AGCGTCACGTGTGGAG,0.15 kcal/mol
2,ATCATCACGTGATGTG,0.26 kcal/mol
3,GGGGTCACGTGTGTGA,0.14 kcal/mol
4,ATGTGCACGTGCGAGA,0.07 kcal/mol
5,TAGGTCACGTGTAAGC,0.24 kcal/mol
6,AGGTGCACGTGGGTTT,-0.11 kcal/mol
7,GAAAGCACGTGTTTTG,-0.05 kcal/mol
8,GGCCACACGTGTTGGG,0.15 kcal/mol
9,GTTCGCACGTGGAGTG,-0.05 kcal/mol
10,GGTGTCACGTGCAGAG,0.06 kcal/mol
11,TTGCGCACGTGGCAGG,-0.23 kcal/mol
12,TCGCTCACGTGGTAGG,0.12 kcal/mol
13,AGGGACACGTGAGGTC,0.29 kcal/mol
14,TGGATCACGTGTAATC,0.35 kcal/mol
15,CAGGACACGTGGGGTA,-0.2 kcal/mol
16,AATGGCACGTGAGATG,0.23 kcal/mol
17,TTGGTCACGTGTCTGA,0.04 kcal/mol
18,TGCTGCACGTGTACTT,0.07 kcal/mol
19,CGGGGCACGTGGGGGC,-0.29 kcal/mol
20,ATGTACACGTGATTGC,0.17 kcal/mol
21,TTACTCACGTGTGTGT,0.21 kcal/mol
22,TTAAGCACGTGGATAA,-0.11 kcal/mol
23,GATTTCACGTGATTGT,0.33 kcal/mol
24,TTTATCACGTGTTGAG,0.24 kcal/mol
25,TTATTCACGTGTGTCG,0.31 kcal/mol
26,ACAGGCACGTGAGTGT,0.05 kcal/mol

row,Sequence,relative binding free energy
1,GGGTGCACGTGTTGCC,0.12 kcal/mol
2,GAGAGCACGTGGGGCA,-0.19 kcal/mol
3,TTCGCCACGTGTTGGT,0 kcal/mol
4,ATGCGCACGTGGATGT,-0.14 kcal/mol
5,TCATTCACGTGTGTGA,0.14 kcal/mol
6,GGTTACACGTGTAGTT,0.15 kcal/mol
7,TAGGTCACGTGAATGT,0.25 kcal/mol
8,TGTCCCACGTGGTGGT,-0.38 kcal/mol
9,TAGCACACGTGTGAGG,0.05 kcal/mol
10,TGGGGCACGTGCTGCG,-0.2 kcal/mol
11,GCGGGCACGTGTATAG,-0.06 kcal/mol
12,TTGGTCACGTGGGTGC,-0.03 kcal/mol
13,TTGGTCACGTGGTATG,0.09 kcal/mol
14,AATGTCACGTGGTCAG,-0.03 kcal/mol
15,AGTTTCACGTGTGTGG,0.15 kcal/mol
16,TCTGTCACGTGGGGAT,-0.01 kcal/mol
17,ATAGTCACGTGTTGAT,0.04 kcal/mol
18,GTTGGCACGTGCGTCT,-0.06 kcal/mol
19,GAGTGCACGTGGTGTC,-0.06 kcal/mol
20,ATTTTCACGTGAGATA,0.43 kcal/mol
21,AGTCGCACGTGATGGG,-0.03 kcal/mol
22,TTGTGCACGTGCTAAT,-0.02 kcal/mol
23,ATTCTCACGTGTGGTA,0.22 kcal/mol
24,AGCAACACGTGGAGGG,-0.02 kcal/mol
25,TGCTTCACGTGGGGTT,0.01 kcal/mol
26,CATGGCACGTGGTGCG,-0.2 kcal/mol

row,Sequence,relative binding free energy
1,TGGGACACGTGTCTGG,0.03 kcal/mol
2,GTATGCACGTGTTCAG,-0.05 kcal/mol
3,TTGTCCACGTGGATAT,0.15 kcal/mol
4,GGGGGCACGTGGACCG,-0.15 kcal/mol
5,TGTTTCACGTGTGTTT,0.28 kcal/mol
6,GAGACCACGTGGTTGG,0 kcal/mol
7,GTGTTCACGTGCTTCG,0.32 kcal/mol
8,TCTAGCACGTGGGTTC,-0.1 kcal/mol
9,TCGTCCACGTGGGTGG,-0.18 kcal/mol
10,AGGGGCACGTGACACG,0.04 kcal/mol
11,GTGATCACGTGATGGT,0.24 kcal/mol
12,TTTGGCACGTGATCGC,0 kcal/mol
13,TTAAGCACGTGAGTTT,0.2 kcal/mol
14,ATGTTCACGTGTCTCT,0.35 kcal/mol
15,GGTCACACGTGGTGGA,0.18 kcal/mol
16,ATTTGCACGTGCGTTT,-0.07 kcal/mol
17,TTGATCACGTGGTAAG,0.14 kcal/mol
18,TTTATCACGTGGCGCG,0.03 kcal/mol
19,TTAAACACGTGTAGAT,0.21 kcal/mol
20,TGGTGCACGTGTCCAT,0 kcal/mol
21,AGTATCACGTGGTGAA,-0.06 kcal/mol
22,TTACTCACGTGCGGTT,0.16 kcal/mol
23,GGTCTCACGTGATCGG,0.36 kcal/mol
24,CATATCACGTGATGGG,0.24 kcal/mol
25,ATGACCACGTGGGGGC,-0.16 kcal/mol
26,ATGTGCACGTGGATCA,-0.03 kcal/mol

row,Sequence,relative binding free energy
1,AGTGTCACGTGGGCAT,-0.06 kcal/mol
2,GGGGTCACGTGTTACT,0.34 kcal/mol
3,TTTGCCACGTGATGTA,0.04 kcal/mol
4,AATTGCACGTGTACGG,0.03 kcal/mol
5,ATCTACACGTGTTTAT,0.24 kcal/mol
6,GGGGGCACGTGGCGAC,-0.2 kcal/mol
7,CGTGTCACGTGGTCAG,-0.09 kcal/mol
8,GGATCCACGTGAGGTG,0.26 kcal/mol
9,GGATTCACGTGGTTAG,0.28 kcal/mol
10,TTTATCACGTGGTTTA,0.13 kcal/mol
11,TTACGCACGTGTGGTT,-0.06 kcal/mol
12,TTGGGCACGTGAGGCC,0.1 kcal/mol
13,TTGAGCACGTGGGAAT,0.02 kcal/mol
14,CTGGTCACGTGATATG,0.14 kcal/mol
15,GGGAGCACGTGCGGGA,-0.13 kcal/mol
16,ATTTGCACGTGTCATG,0.14 kcal/mol
17,ATACTCACGTGGCGGG,0.22 kcal/mol
18,GTGAACACGTGTATAG,0.08 kcal/mol
19,GGAGCCACGTGGTATT,-0.05 kcal/mol
20,GTTGTCACGTGAATTG,0.26 kcal/mol
21,AATGGCACGTGACGAG,0.04 kcal/mol
22,GGTTACACGTGGCTTA,0.12 kcal/mol
23,GGGGTCACGTGTAGAG,0.01 kcal/mol
24,TGATACACGTGTTGGC,0.07 kcal/mol
25,TATTGCACGTGAGGAT,0.14 kcal/mol
26,GTATGCACGTGTGCTA,0.07 kcal/mol

row,Sequence,relative binding free energy
1,ACGTGCACGTGGTGTT,-0.12 kcal/mol
2,CTCTTCACGTGGATGT,0.33 kcal/mol
3,GGGCTCACGTGCTTTT,0.3 kcal/mol
4,GTTGTCACGTGGGTGC,0.06 kcal/mol
5,AGGGACACGTGTAGGC,0.24 kcal/mol
6,TGGTGCACGTGTAGGG,-0.02 kcal/mol
7,AGGCTCACGTGTTTTA,0.27 kcal/mol
8,GGGGTCACGTGGGAGG,0.08 kcal/mol
9,TTGTACACGTGGGCTC,0.02 kcal/mol
10,ATGGGCACGTGACGTA,-0.03 kcal/mol
11,GTCTTCACGTGAGTGA,0.42 kcal/mol
12,GGATTCACGTGTTAAT,0.19 kcal/mol
13,TTACTCACGTGCTTGT,0.2 kcal/mol
14,AGAGTCACGTGTTGGG,0.17 kcal/mol
15,GTTGTCACGTGTTGGA,0.23 kcal/mol
16,TAGCGCACGTGCGGTG,-0.17 kcal/mol
17,ACATGCACGTGGGTGG,-0.19 kcal/mol
18,AGGTGCACGTGGGGTT,-0.14 kcal/mol
19,TGACTCACGTGAGGCG,0.33 kcal/mol
20,GATGACACGTGGATTG,0.1 kcal/mol
21,TTCAACACGTGTATTG,0.15 kcal/mol
22,CTGGTCACGTGGGTCT,-0.04 kcal/mol
23,GACGTCACGTGGTCGG,0.07 kcal/mol
24,TCGAGCACGTGTTATG,-0.2 kcal/mol
25,ATTAGCACGTGATGAT,0.15 kcal/mol
26,GTAGGCACGTGGTTGC,-0.17 kcal/mol

row,Sequence,relative binding free energy
1,ATGGACACGTGTTGTA,-0.03 kcal/mol
2,TCAGACACGTGTTATG,0.12 kcal/mol
3,TTATACACGTGCTGTG,-0.06 kcal/mol
4,ATATACACGTGAAGGT,0.22 kcal/mol
5,GAATGCACGTGGTTGG,0.01 kcal/mol
6,GATTACACGTGGTGGA,0.12 kcal/mol
7,GAGGGCACGTGTAGCA,-0.04 kcal/mol
8,TTAGCCACGTGGTGCT,-0.17 kcal/mol
9,ATGGTCACGTGGCAAT,-0.01 kcal/mol
10,TGTACCACGTGGGAGT,-0.05 kcal/mol
11,ATTGGCACGTGAGAGG,0.07 kcal/mol
12,TTGTACACGTGCGTAT,0 kcal/mol
13,GTACGCACGTGTATGG,-0.07 kcal/mol
14,AAGGGCACGTGCTTGG,-0.14 kcal/mol
15,GTGGGCACGTGCAATG,-0.09 kcal/mol
16,TTATGCACGTGCGTAA,-0.13 kcal/mol
17,TTAGGCACGTGTTTAT,-0.14 kcal/mol
18,ATATTCACGTGTTAAG,0.13 kcal/mol
19,GGGTGCACGTGTTTGT,0 kcal/mol
20,ATGAGCACGTGAATGG,0.21 kcal/mol
21,TTTGTCACGTGGACAG,-0.08 kcal/mol
22,TCGGGCACGTGATTTG,0.06 kcal/mol
23,AGGGCCACGTGGTGTC,-0.24 kcal/mol
24,TAGTACACGTGGGTGC,-0.2 kcal/mol
25,TTGGTCACGTGAACAT,0.17 kcal/mol
26,GGGGTCACGTGTTGAC,0.15 kcal/mol

row,Sequence,relative binding free energy
1,TAGCGCACGTGGGCAG,-0.32 kcal/mol
2,TCTAGCACGTGTCAGG,0.07 kcal/mol
3,AATTGCACGTGGGGCT,-0.18 kcal/mol
4,GTTGTCACGTGTGCAG,0.14 kcal/mol
5,ATTCGCACGTGTTGTG,-0.04 kcal/mol
6,AGTGTCACGTGAGCGA,0.27 kcal/mol
7,AGGGGCACGTGACTGT,-0.12 kcal/mol
8,TTAGTCACGTGTGCGT,0.05 kcal/mol
9,AGTGGCACGTGGGCAT,-0.2 kcal/mol
10,GTTGGCACGTGCGGTG,-0.04 kcal/mol
11,TTCAGCACGTGACGTG,0.16 kcal/mol
12,TTGTTCACGTGTACGC,0.24 kcal/mol
13,TCTGTCACGTGTATAT,-0.03 kcal/mol
14,ATAATCACGTGTTAAG,0.11 kcal/mol
15,TTCTTCACGTGTGGTT,0.37 kcal/mol
16,TTTCACACGTGATTAT,0.28 kcal/mol
17,GTGTGCACGTGTTCTG,0.05 kcal/mol
18,TATGGCACGTGAGTAA,0.13 kcal/mol
19,ATGGTCACGTGTAGGC,0.18 kcal/mol
20,TAAGTCACGTGGGCTG,0.04 kcal/mol
21,CGGGACACGTGGGGCT,-0.17 kcal/mol
22,AATTACACGTGGGCAG,0.2 kcal/mol
23,ATAGTCACGTGAGCGG,0.29 kcal/mol
24,TTTGTCACGTGTGGAC,0.08 kcal/mol
25,GGGAGCACGTGGGTCA,-0.23 kcal/mol
26,TAAGTCACGTGTAGTT,0.17 kcal/mol

row,Sequence,relative binding free energy
1,TGGGGCACGTGTCTCG,-0.1 kcal/mol
2,GGAGGCACGTGGCATG,-0.19 kcal/mol
3,CGTGGCACGTGAGGAT,0.17 kcal/mol
4,ATCAGCACGTGTTGGA,-0.09 kcal/mol
5,GTCGTCACGTGAGTCT,0.34 kcal/mol
6,AGATGCACGTGGGGCG,-0.07 kcal/mol
7,CAAGGCACGTGTTGAG,0.01 kcal/mol
8,GGTGGCACGTGACCGT,-0.08 kcal/mol
9,TGTTACACGTGGCTGA,0.06 kcal/mol
10,CAATTCACGTGTATGT,0.16 kcal/mol
11,GGTAACACGTGTGCGT,0.03 kcal/mol
12,AGGATCACGTGTTGGT,0.22 kcal/mol
13,ATATTCACGTGCTGTA,0.11 kcal/mol
14,GGCATCACGTGGAGGT,0.13 kcal/mol
15,GGGGGCACGTGAACTG,0.06 kcal/mol
16,AGGTTCACGTGGCATA,0.22 kcal/mol
17,CTTAGCACGTGGATGG,-0.16 kcal/mol
18,TGCTGCACGTGTATGT,0.18 kcal/mol
19,GGGGGCACGTGTGAGA,0.09 kcal/mol
20,ATTGGCACGTGTATTT,0.03 kcal/mol
21,TGTGACACGTGTAGGA,0.18 kcal/mol
22,TGGGTCACGTGTATCT,0.2 kcal/mol
